# Source: the supplement of paper PMC3334620
# Whole data set: some 33,000 sequences, median “E-score (-0.5 to 0.5)” near -0.043, cut for the highest 2% near 0.37. The list shows a part of the results.
# Target: T1, Upc2 (UniProt Q12151)
# T1 sequence: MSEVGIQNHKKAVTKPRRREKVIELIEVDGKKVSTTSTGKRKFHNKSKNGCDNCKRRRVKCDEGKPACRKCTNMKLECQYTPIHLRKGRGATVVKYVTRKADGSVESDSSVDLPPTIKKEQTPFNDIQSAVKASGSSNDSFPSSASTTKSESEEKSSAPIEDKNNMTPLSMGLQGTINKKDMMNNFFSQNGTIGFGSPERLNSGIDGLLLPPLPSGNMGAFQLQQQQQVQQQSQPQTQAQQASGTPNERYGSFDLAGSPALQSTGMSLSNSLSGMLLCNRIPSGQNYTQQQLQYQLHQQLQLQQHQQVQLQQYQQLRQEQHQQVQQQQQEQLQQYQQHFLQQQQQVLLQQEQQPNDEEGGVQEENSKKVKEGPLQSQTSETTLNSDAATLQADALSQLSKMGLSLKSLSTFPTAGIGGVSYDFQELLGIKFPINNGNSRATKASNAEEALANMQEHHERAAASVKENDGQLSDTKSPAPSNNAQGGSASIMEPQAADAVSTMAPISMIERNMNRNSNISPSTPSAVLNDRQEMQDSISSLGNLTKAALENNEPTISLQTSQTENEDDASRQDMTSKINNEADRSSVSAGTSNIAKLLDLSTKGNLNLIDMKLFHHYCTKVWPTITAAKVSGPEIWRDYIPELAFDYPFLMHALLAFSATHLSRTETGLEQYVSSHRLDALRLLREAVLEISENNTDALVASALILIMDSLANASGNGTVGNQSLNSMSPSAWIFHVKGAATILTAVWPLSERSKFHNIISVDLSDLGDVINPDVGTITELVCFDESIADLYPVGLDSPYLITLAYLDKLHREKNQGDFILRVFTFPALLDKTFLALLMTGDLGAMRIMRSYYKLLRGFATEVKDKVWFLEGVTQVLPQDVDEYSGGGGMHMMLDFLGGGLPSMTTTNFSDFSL
# Experiment: PBM E-score (8-mer binding enrichment) (E-score (-0.5 to 0.5)); higher = stronger / more preferred TF binding; most listed sequences are background and not binding sites
# Details: protein concentration: 200 nM; construct: GST-full length
# Procedure, shortened: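 GST-tagged yeast TFs (full-length or DNA-binding domain) were made by PURExpress in vitro transcription/translation and applied at about 100-200 nM to universal all-10-mer Agilent arrays. The arrays were made double-stranded by primer extension, on fresh or once-stripped slides. Bound protein was detected with fluorescent anti-GST, and scans were normalised with masliner. Each ungapped eight-base word, pooled with its reverse complement, received an E-score (modified Wilcoxon-Mann-Whitney statistic) from the Universal PBM Analysis Suite.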
row,Sequence,PBM E-score
1,AACAACCG,0.176
2,AAATATAT,0.0465
3,GTAGAAAA,0.137
4,TGATCTAA,0.0543
5,AGGCTTCC,-0.133
6,CCCGTGAA,0.0941
7,TTGGTAAA,0.169
8,GAATCGCC,-0.0174
9,CGGATGTA,0.118
10,AGGAGGCA,-0.283
11,CTTGACTC,-0.0404
12,GCTGTGGA,-0.207
13,ACAGACGG,-0.125
14,AAATGGCC,-0.187
15,ACTTACGG,0.194
16,ATGAGGCC,-0.136
17,AGCCGATA,-0.157
18,GGTCTGAA,0.0866
19,CACGGTTA,0.0532
20,CCATAGAA,-0.25
21,CAAATTCC,0.0123
22,CAAAGGGA,-0.161
23,TGCGTTAA,0.238
24,ACGGCGGA,0.00882
25,CCGGGCCC,-0.113

row,Sequence,PBM E-score
1,AGTACCAA,-0.0772
2,AGCACGTC,0.00589
3,ATACACAC,0.0394
4,AGTCGTGG,-0.163
5,GAACAAAC,0.133
6,AACATCAC,-0.137
7,GGAATCGA,-0.225
8,GTATCACA,0.199
9,TTACAGAA,-0.0738
10,CTGTTTGC,0.132
11,CTACATGA,-0.185
12,CGATTGAA,0.0171
13,AGGCCACG,-0.0254
14,TAGCGCGA,0.0682
15,CGATAGTA,0.00399
16,ACGGGAAC,0.262
17,AGAAGGAA,-0.071
18,AGCGTTAA,0.153
19,ACGTGTTA,0.137
20,AGATAGCA,-0.264
21,CTAGGCGA,-0.0759
22,GACTTTAC,0.206
23,ATTGTTCA,-0.0472
24,ACTAAGCA,-0.113
25,CCTGCTGC,-0.266

row,Sequence,PBM E-score
1,GAAGTGTC,-0.018
2,ACTGAGTG,-0.034
3,AGGTTTCA,-0.202
4,TACTATCA,-0.0341
5,ACCCGCGT,0.137
6,GTTTCGCA,0.157
7,CATATACC,-0.0116
8,GGGGCAGA,-0.11
9,ATCAGAGA,-0.167
10,CATTCTAA,-0.0331
11,AATCACTC,-0.0563
12,ACGCACCA,-0.00555
13,CGCTCGCA,0.26
14,AAAACAGA,-0.0135
15,ACTCTGTC,-0.0631
16,GCCACGAA,-0.16
17,ATACTTTC,-0.0413
18,CTTGATAA,-0.0756
19,GTCAGCAC,-0.108
20,TAATCCAA,-0.0801
21,CCCCAAAC,0.114
22,ACTCGAAG,-0.258
23,CCCTCTCA,-0.355
24,CCCGAGTA,-0.0661
25,ACCCCCAT,-0.139

row,Sequence,PBM E-score
1,ATATGTCC,-0.00922
2,CTTCCTAA,-0.0703
3,CCGCACTA,-0.0176
4,CGTGGGAG,-0.087
5,CCGAACCC,-0.0569
6,TATACAAA,0.143
7,GTCGACAA,-0.111
8,CCAATGAG,-0.14
9,AGCTGTCG,0.22
10,ACAAGTTC,0.00422
11,ACCGAGAG,0.142
12,AACGGACC,0.254
13,CCGAAGAG,0.09
14,GGGCGTGA,-0.0657
15,GCCGCTTA,0.161
16,AGCCAGAT,-0.175
17,GGAACTAA,0.146
18,AATTACGC,-0.00238
19,CTGACGGC,-0.214
20,AGGCAAAA,-0.178
21,ATCACAGA,-0.155
22,TCACGTCA,-0.0623
23,TTTGCAAA,0.11
24,GTCTAGCA,-0.148
25,AGTGGGGC,-0.283

row,Sequence,PBM E-score
1,GAAGTGCA,-0.153
2,AAGATAAT,0.0263
3,GCGGTCAA,-0.0468
4,CCGCGGTC,-0.0616
5,GCCCTAGC,-0.328
6,CATATTTA,0.0403
7,TAAAGTGA,0.0674
8,ACGGTAAA,0.207
9,ACTCCAAG,-0.152
10,ACCCTTGA,-0.179
11,ACAATGCG,-0.0374
12,ACAGTGTA,-0.07
13,GAGTTGCC,-0.0855
14,CCTATGAG,-0.28
15,AAGACGTC,0.0636
16,AGATGACG,0.0468
17,AGAGCGAC,0.11
18,AAAAACGC,0.0029
19,ACCTGCAG,-0.0741
20,AACTGTCA,-0.0819
21,AGTTGCGA,0.0264
22,CATCTCGC,0.131
23,AGCTAGTC,0.0126
24,CCCTCGAG,-0.314
25,AGAAGCAC,-0.126

row,Sequence,PBM E-score
1,ATCTAACG,0.117
2,GGTGCTCA,-0.0527
3,CGGACCGC,-0.0362
4,AATCTAGA,-0.162
5,ACCTAAGC,0.125
6,CGGATACC,0.0516
7,AGATCAGA,-0.147
8,CGTTCTCC,0.127
9,AGTAGGAC,-0.231
10,TGCCACCA,-0.275
11,ACGTTAAG,0.245
12,ACTGATAG,-0.1
13,CAACTAAG,-0.0507
14,GCTGCGCC,-0.253
15,TTACGTAA,0.246
16,AGCCCTTC,-0.211
17,CAGCTGCA,-0.347
18,CAAGTCTC,-0.046
19,ACGTCCAC,0.0192
20,GAACCAAA,-0.0318
21,AGCATAAA,-0.0777
22,AGCAGTCG,0.102
23,AAAGGTAT,0.0203
24,AGCCACCC,-0.128
25,ACCGAAAT,0.141

row,Sequence,PBM E-score
1,AGCCGTAC,0.346
2,CGAGCATC,0.166
3,AGAACGAA,0.376
4,AGCCGACT,-0.0249
5,TCTGGGCA,-0.31
6,ACAAACAG,-0.0644
7,GATAAGAA,0.0708
8,TGAAGACA,-0.064
9,CGCGCCGA,0.132
10,CCCGGCCA,-0.361
11,AACAAACA,-0.114
12,GCCAACGA,0.097
13,AAATTTAG,0.117
14,CCGGAGCG,0.131
15,CAACGGGC,0.00552
16,CCTGCGTC,-0.28
17,GATGTTCA,-0.334
18,GACGGTCC,-0.273
19,ACAAGTTG,-0.27
20,GATTGTAA,0.0554
21,AAACGGAG,0.34
22,CAACTTAG,-0.0348
23,CTGTTATA,0.0553
24,ACGACGAG,0.367
25,AAGCTATT,-0.0289

row,Sequence,PBM E-score
1,ACTACGCT,-0.072
2,TGCATCCA,-0.118
3,TCAGGGCA,-0.0548
4,CTACGCCA,-0.185
5,CCGAAGTC,-0.00308
6,GCACACCC,-0.00534
7,GGTAAGCA,-0.0514
8,ACGGGTTG,0.226
9,ATGGGCGC,-0.131
10,TCTGTTAA,0.0431
11,AAACCCCT,-0.255
12,ATTAGAAC,0.0604
13,ACATGAGA,-0.0843
14,AGCACGCA,-0.103
15,CAGCTACA,-0.084
16,GCCTTGCC,-0.1
17,GACTAAGC,0.0106
18,AATCTGAG,-0.137
19,CTTTAAAA,0.133
20,GTGCCCAA,-0.281
21,GAGTATAC,0.315
22,CAATACGA,0.419
23,ACGGTCTG,0.126
24,ACCATTCG,-0.00194
25,CGTAAGTC,0.187

row,Sequence,PBM E-score
1,ATTGCAAA,0.0233
2,CGTTAATA,0.344
3,ATTAAGTA,0.0513
4,GGGACAAC,-0.0785
5,CGGTTAGC,0.195
6,CAATCAGG,-0.196
7,TATGACAA,0.154
8,GACTGTCC,-0.157
9,CAAGCTTA,-0.0773
10,GCCGGCCC,-0.28
11,GGGAAAAC,0.0239
12,CGGTAGGA,-0.111
13,GACCCTGC,-0.171
14,AGGGATAA,0.0539
15,GCCGCCGA,-0.193
16,ATTCACGA,0.0672
17,ATTTGTTG,-0.0255
18,ACTAGTCT,-0.182
19,AATGGAGA,-0.179
